Reference: US11365205B2 (Aurigene Discovery Technologies Limited, priority 2018, dated 2022)

Molecular target: PRMT5/MEP50 Complex (Homo sapiens (Human), UniProt O14744)
Assay: PRMT5 inhibition based on TR-FRET assay
Format: biochemical
Conditions: 32 nM PRMT5:MEP50, 50 nM Histone-H4 peptide, 1 μM SAM
Description: PRMT5 Inhibition Based on TR-FRET Assay:
Protein arginine methyltransferase 5 (PRMT5) is a type II arginine methyltransferase that catalyze mono- and symmetric demethylation on arginine residues of histone or non-histone proteins in presence of S-adenosylmethionine (AdoMet or SAM) a cofactor responsible for donating the methyl group. PRMT5 is reported to be overexpressed in several human cancers. To identify compounds that inhibit the PRMT5 and decrease its activity, a TR-FRET based assay has been established. Time-resolved fluorescence resonance energy transfer (TR-FRET) HTS assays are homogeneous proximity assays where the interaction of two dye-labeled binding partners is detected by the energy transfer between a donor and an acceptor dye and the subsequent light emission by the acceptor dye. PRMT5 catalyzes Histone H4 peptide which is biotin tagged to the Lysine amino acid at carboxyl end, in presence of S-adenosyl-1-methionine (SAM) to methylate the peptide. The antibody specific to mono methylated H4 peptide (H4R3) with Ig conjugate binds to the methylated peptide, indirectly binding to the Europium lanthanide. […]
The compound dilutions were prepared as 7.5% DMSO stock solutions in assay buffer. […] The plates were then read on Victor-3 with Excitation at 340 nm and Emissions collected at 615 and 665 nm in TR-FRET protocol. […]

Chain of UniProt O14744 (O14744 whole entry): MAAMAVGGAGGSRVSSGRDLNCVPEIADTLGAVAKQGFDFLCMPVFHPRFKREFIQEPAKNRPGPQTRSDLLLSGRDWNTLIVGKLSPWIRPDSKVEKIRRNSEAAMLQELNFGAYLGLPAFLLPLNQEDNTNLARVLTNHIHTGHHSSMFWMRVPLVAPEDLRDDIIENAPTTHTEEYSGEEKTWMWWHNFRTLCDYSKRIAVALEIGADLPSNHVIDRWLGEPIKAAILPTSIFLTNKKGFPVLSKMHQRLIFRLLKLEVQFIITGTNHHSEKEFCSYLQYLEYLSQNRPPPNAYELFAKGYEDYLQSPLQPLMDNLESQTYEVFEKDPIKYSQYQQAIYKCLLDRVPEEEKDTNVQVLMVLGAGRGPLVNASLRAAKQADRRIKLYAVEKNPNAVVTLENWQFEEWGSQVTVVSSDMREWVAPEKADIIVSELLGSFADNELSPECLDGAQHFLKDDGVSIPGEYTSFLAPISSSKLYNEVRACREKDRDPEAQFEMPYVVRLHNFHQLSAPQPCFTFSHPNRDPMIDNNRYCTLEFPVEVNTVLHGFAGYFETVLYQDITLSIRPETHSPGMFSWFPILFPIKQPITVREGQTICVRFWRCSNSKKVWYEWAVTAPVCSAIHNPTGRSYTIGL
Chain of UniProt O14744 (Q9BQA1 whole entry partner): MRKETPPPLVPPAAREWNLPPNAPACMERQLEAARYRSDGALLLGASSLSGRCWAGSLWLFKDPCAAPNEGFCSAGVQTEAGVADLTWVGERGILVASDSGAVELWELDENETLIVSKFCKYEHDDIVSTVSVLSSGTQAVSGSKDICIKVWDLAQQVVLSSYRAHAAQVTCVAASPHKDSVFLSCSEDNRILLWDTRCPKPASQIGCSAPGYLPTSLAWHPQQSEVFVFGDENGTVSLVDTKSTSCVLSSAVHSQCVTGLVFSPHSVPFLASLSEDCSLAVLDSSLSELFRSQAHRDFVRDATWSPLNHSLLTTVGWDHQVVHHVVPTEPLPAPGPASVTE

IC50 [nM]	Structure (SMILES)
320	COc1ccc(CN2CCN(CC(O)CN3CCc4ccccc4C3)C2=O)cn1 (centres unmarked) [Example 13, 1-(3-(3,4-dihydroisoquinolin-2(1H)-yl)-2-hydroxypropyl)-3-((6-methoxypyridin-3-yl)methyl)imidazolidin-2-one]
160	CC1(C)CN(CC(O)CN2CCc3ccccc3C2)C(=O)N1Cc1ccc(C#N)cc1 (centres unmarked) [Example 14, 4-((3-(3-(3,4-Dihydroisoquinolin-2(1H)-yl)-2-hydroxypropyl)-5,5-dimethyl-2-oxoimidazolidin-1-yl)methyl)benzonitrile]
